Reference: PubChem BioAssay (NCI)
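Test compounds were applied to cells in 96-well plates for 48 hours at 5 doses. GI50 marks 50% less growth.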 A number of entries come with more than one value. Only these are listed. The source may hold further records. For some of these results: The records of an entry are repeats across runs, samples, wells, individuals or studies. Marks in square brackets tell the records apart. The letters are not those of the source and start again with each entry.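 TGI marks complete inhibition of growth.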 For some of these results: A record mostly stands for its own series of concentrations, not given here; a value can be the end of its range.

Columns and labels:
Assay in all cases: DTP human tumour cell line panel, 48 h
BT-549 breast = test system: BT-549 breast
SR leukemia = test system: SR leukemia
CCRF-CEM leukemia = test system: CCRF-CEM leukemia
K-562 leukemia = test system: K-562 leukemia
NCI/ADR-RES ovarian = test system: NCI/ADR-RES ovarian
NCI-H23 lung = test system: NCI-H23 lung
T-47D breast = test system: T-47D breast

CC(C)n1nc(-c2ccc3oc(N)nc3c2)c2c(N)ncnc21
TGI (BT-549 breast): 59.6 nM [sample A, mean of 2 tests] and 1.02 µM [sample B, mean of 2 tests]

O=S1(=O)CS(=O)(=O)OCCO1
TGI (SR leukemia): 13.5 µM and 431 µM

C/C(=N\NC(=S)N1CC2CCC(CC2)C1)c1cccc(C)n1
TGI (CCRF-CEM leukemia): 78.5 nM and 2.39 µM
TGI (K-562 leukemia): 170 nM and > 34.5 µM
TGI (NCI/ADR-RES ovarian): 581 nM and 6.73 µM

Cc1cc(C(=O)NC(CCC(=O)O)C(=O)O)sc1CCC1CNc2nc(N)[nH]c(=O)c2C1 (configuration not stated)
GI50 (NCI-H23 lung): 125 nM [sample A, mean of 2 tests] and 1.52 µM [sample B, mean of 2 tests]
GI50 (T-47D breast): 197 nM [sample A, mean of 2 tests] and 6.9 µM [sample B, mean of 2 tests]
